According to the supplement of paper PMC10126150:
Values marked as one replicate rest on one cluster of the flow cell; about a third of the high ones do not repeat.

System: ATP
Assay: switch fluorescence ratio, 500 uM ATP over buffer (Cy3 cluster intensity, sum of 5 cycles each) (fold (ratio)); higher = stronger signal-on switching upon ATP binding; sequences stand for … in TCGTCGGCAGCGTCAGATGTGTATAAGAGACAGTTTTTTTTTTTTTTTTTTTTTTTTT…TC
Conditions: aptamer strand: ATP DNA aptamer (quencher-CACCTGGGGGAGTATTGCGGAGGAAGG + anchor), 100 nM annealed; ATP concentration: 500 uM; one replicate
Procedure, shortened: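 Values give the fluorescence ratio for each switch-domain sequence, averaged from per-cluster ratios of summed target-cycle to summed buffer-cycle Cy3 intensity. The Cy3-labelled switching-strand clusters sat on a modified Illumina MiSeq flow-cell, were annealed to 100 nM quencher-labelled ATP aptamer, and were imaged in selection buffer, then after 15 min with 500 uM ATP at 22 °C. Five cycles ran with NaOH stripping and re-annealing between them, and clusters outside 100-1000 RFU were excluded.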
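Note: ATP exposure 15 min at 22 °C before imaging.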

TTCGCACTGA showed a switch fluorescence ratio of 1.12.
CGAATTAAAG gave a switch fluorescence ratio of 1.02.
Work on CGACCTAAGA yielded a switch fluorescence ratio of 1.04.
Sequence CGTCAAGGTC has a switch fluorescence ratio of 1.
Work on GCTAGGAGAG yielded a switch fluorescence ratio of 1.01.
Work on GTTTATAGAC yielded a switch fluorescence ratio of 1.01.
Sequence CAAGGGACGT has a switch fluorescence ratio of 1.07.
CGGCGTCAG was tested, and the switch fluorescence ratio was 0.996.
TGTCGTAGGT showed a switch fluorescence ratio of 0.951.
Work on CTATTATTGA yielded a switch fluorescence ratio of 0.993.
ATTTATAAAA showed a switch fluorescence ratio of 0.974.
For GCGCAAATTG, the switch fluorescence ratio was 0.989.
CAGGGCGGT showed a switch fluorescence ratio of 1.03.
GATTACCGGC was tested, and the switch fluorescence ratio was 1.04.
Work on CGCCAATGGA yielded a switch fluorescence ratio of 1.08.
CGGGGTAACG showed a switch fluorescence ratio of 0.954.
With TAGTTGCGCG the switch fluorescence ratio was 0.991.
With TAAGTGCTTT the switch fluorescence ratio was 1.02.
In the case of ATTAACGATC, the switch fluorescence ratio is reported as 1.02.
Work on GTGACTTTAT yielded a switch fluorescence ratio of 0.973.
In the case of TTATGGCT, the switch fluorescence ratio is reported as 0.993.
CCGTCTCTAT gave a switch fluorescence ratio of 1.05.
TGGAGCCATA was tested, and the switch fluorescence ratio was 1.01.
In the case of TACCGCCGTA, the switch fluorescence ratio is reported as 1.
ATAAAGAAAA showed a switch fluorescence ratio of 1.01.
Work on AGGAGAGATG yielded a switch fluorescence ratio of 0.961.
TTATGCGCCG gave a switch fluorescence ratio of 1.07.
CATTGAGATA gave a switch fluorescence ratio of 0.976.
With TTATAATAT the switch fluorescence ratio was 1.
AAGTTGTGG gave a switch fluorescence ratio of 1.
GGGAGGACAC showed a switch fluorescence ratio of 1.01.
With ACCGCATCTG the switch fluorescence ratio was 1.19.
Work on GGATAGCAGG yielded a switch fluorescence ratio of 0.994.
TGAGGTGGTA showed a switch fluorescence ratio of 0.97.
For GTTTATCTAG, the switch fluorescence ratio was 0.983.
GACGAAGTGC was tested, and the switch fluorescence ratio was 1.79.
For TTTACCACCC, the switch fluorescence ratio was 1.15.
GGCTCTCTTG was tested, and the switch fluorescence ratio was 0.979.
CTTTATCATG gave a switch fluorescence ratio of 1.03.
GAATACGCTT gave a switch fluorescence ratio of 1.57.
GACGAGCTAG showed a switch fluorescence ratio of 1.01.
With TATCCCAGCT the switch fluorescence ratio was 1.02.
For GCGTTGCAAC, the switch fluorescence ratio was 1.03.
With TAGCTGGCAG the switch fluorescence ratio was 1.01.
For TCTGGTATG, the switch fluorescence ratio was 0.971.
In the case of CTGTGCCCGA, the switch fluorescence ratio is reported as 1.05.
For TGCCTCATGG, the switch fluorescence ratio was 0.991.
In the case of TTGGCAGGTT, the switch fluorescence ratio is reported as 0.953.
TAGATGATCG showed a switch fluorescence ratio of 0.932.
CGATAAGATT was tested, and the switch fluorescence ratio was 1.01.
TGGGTACTGA gave a switch fluorescence ratio of 0.978.
GAGTAACGTG showed a switch fluorescence ratio of 0.946.
For TGACGCGCCT, the switch fluorescence ratio was 1.15.
GCGTTGGGAA gave a switch fluorescence ratio of 0.953.
With GTGCTTGGAG the switch fluorescence ratio was 1.04.
Work on TTTGCGTGGT yielded a switch fluorescence ratio of 1.04.
AGGTAAAGG was tested, and the switch fluorescence ratio was 1.01.
Work on GTGTACTTGG yielded a switch fluorescence ratio of 1.05.
Work on TTAGCTGGGT yielded a switch fluorescence ratio of 1.02.
Work on ATGGTTTCG yielded a switch fluorescence ratio of 0.944.
Work on TCGCTGCAGC yielded a switch fluorescence ratio of 1.04.
In the case of CTTCCTAAT, the switch fluorescence ratio is reported as 1.09.
GGTTCGTGTG showed a switch fluorescence ratio of 0.988.
For TTCGTGCGTT, the switch fluorescence ratio was 1.04.
CCTTGTACTA showed a switch fluorescence ratio of 1.03.
In the case of GAGCAACAGT, the switch fluorescence ratio is reported as 1.04.
In the case of TCGGCGTGAC, the switch fluorescence ratio is reported as 1.09.
Work on AAAAGCGCTT yielded a switch fluorescence ratio of 1.02.
CTACATCAAT showed a switch fluorescence ratio of 1.17.
Sequence AGCATTTTGC has a switch fluorescence ratio of 1.01.
CAGCTAAGG showed a switch fluorescence ratio of 1.05.
Work on TTGGCTCTGA yielded a switch fluorescence ratio of 0.999.
For TGCGCGTGAT, the switch fluorescence ratio was 0.982.
AATCTAAGGC was tested, and the switch fluorescence ratio was 1.01.
In the case of TGTCGCCAAT, the switch fluorescence ratio is reported as 0.982.
Work on GGGTATGCCT yielded a switch fluorescence ratio of 1.01.
ATCCGAG showed a switch fluorescence ratio of 1.08.
Work on GACTTCACGT yielded a switch fluorescence ratio of 1.23.
For CCCCCACTGC, the switch fluorescence ratio was 2.69.
For GTACTATATT, the switch fluorescence ratio was 1.11.
With TTAGGTACGT the switch fluorescence ratio was 0.996.
With TAGAGCCTGG the switch fluorescence ratio was 0.978.
In the case of GCTAAAGAGA, the switch fluorescence ratio is reported as 1.03.
Sequence AAGCCGTTAT has a switch fluorescence ratio of 1.02.
CATCAGTGT gave a switch fluorescence ratio of 1.01.
Sequence GCGTATCCAC has a switch fluorescence ratio of 1.02.
ACGTGTGGAG showed a switch fluorescence ratio of 1.07.
TGGAAATTCG was tested, and the switch fluorescence ratio was 0.997.
TCGGGTACG was tested, and the switch fluorescence ratio was 1.01.
For TTCGGTAGGA, the switch fluorescence ratio was 0.983.
AATTAGCAGC showed a switch fluorescence ratio of 1.01.
In the case of GACCGAGATT, the switch fluorescence ratio is reported as 1.03.
CTGAATTTGC was tested, and the switch fluorescence ratio was 0.996.
For AGGGACTCA, the switch fluorescence ratio was 1.03.
TATCTATCGT gave a switch fluorescence ratio of 1.03.
AAGCGAGGGT gave a switch fluorescence ratio of 1.03.
AGATGGCTCT gave a switch fluorescence ratio of 0.999.
Sequence ATGCCATATG has a switch fluorescence ratio of 0.991.
ACGTTCTGTG was tested, and the switch fluorescence ratio was 1.04.
Work on AAGTCGCTCT yielded a switch fluorescence ratio of 1.03.
For AAATGATGAT, the switch fluorescence ratio was 1.02.
TCTCATGGGG gave a switch fluorescence ratio of 1.01.
AGCATTATTC showed a switch fluorescence ratio of 1.31.
In the case of GGGGCTATTG, the switch fluorescence ratio is reported as 1.
Work on CCTGTATGGG yielded a switch fluorescence ratio of 1.05.
With CAGGTAATAT the switch fluorescence ratio was 1.03.
For AGATGAAAAC, the switch fluorescence ratio was 1.13.
AACGGTGTTG gave a switch fluorescence ratio of 0.993.
GATTAGAGGA was tested, and the switch fluorescence ratio was 1.02.
TTTCGTTTC was tested, and the switch fluorescence ratio was 1.02.
Sequence CCCGAGGTTT has a switch fluorescence ratio of 1.09.
TTGAAGACAG was tested, and the switch fluorescence ratio was 0.981.
TTAATTCACG showed a switch fluorescence ratio of 1.06.
Work on CAGGATTCTT yielded a switch fluorescence ratio of 1.06.
AGGGGTCTTG gave a switch fluorescence ratio of 1.19.
Work on TTGACACCCT yielded a switch fluorescence ratio of 1.2.
GTGGGGTTAG gave a switch fluorescence ratio of 0.993.
In the case of CGGGTCTGGA, the switch fluorescence ratio is reported as 1.02.
In the case of TTTGCAATGA, the switch fluorescence ratio is reported as 3.91.
For GGCTATAGGA, the switch fluorescence ratio was 0.954.
Sequence TACAGCCGCA has a switch fluorescence ratio of 1.51.
In the case of CCGGGGCCCG, the switch fluorescence ratio is reported as 1.04.
For AAATATGGT, the switch fluorescence ratio was 1.03.
With TAGAAAGAGT the switch fluorescence ratio was 0.99.
CTATCAAAGC gave a switch fluorescence ratio of 1.03.
Work on CCCCGGCCCG yielded a switch fluorescence ratio of 1.19.
For GATGATTCAT, the switch fluorescence ratio was 1.
For CCGCGAGCGA, the switch fluorescence ratio was 1.86.
ACAATGTTAA showed a switch fluorescence ratio of 0.988.
In the case of CGGTGGCTAT, the switch fluorescence ratio is reported as 1.01.
Sequence AACCAGTCGA has a switch fluorescence ratio of 1.
AGGTAGTTCG was tested, and the switch fluorescence ratio was 1.
In the case of AGATCTGAGA, the switch fluorescence ratio is reported as 1.07.
AGATTCAGCG was tested, and the switch fluorescence ratio was 1.03.
TAGGTAGCAG gave a switch fluorescence ratio of 0.96.
Sequence ATCTGAATGC has a switch fluorescence ratio of 1.14.
Sequence CGGAGTATGC has a switch fluorescence ratio of 1.26.
With GTTCACCGGC the switch fluorescence ratio was 1.04.
In the case of GGGGATGATC, the switch fluorescence ratio is reported as 1.01.
Work on CTCGTGAAGG yielded a switch fluorescence ratio of 1.
In the case of CTCAGATATC, the switch fluorescence ratio is reported as 1.05.
Work on GGAAAAAGCT yielded a switch fluorescence ratio of 1.03.
AGTACAACCT gave a switch fluorescence ratio of 1.8.
AGCGCTATAT gave a switch fluorescence ratio of 1.04.
CGCTAATTGC showed a switch fluorescence ratio of 2.14.
In the case of CAGTTTATTC, the switch fluorescence ratio is reported as 1.01.
TTCATGCCTA gave a switch fluorescence ratio of 1.01.
For CTGAAGGGG, the switch fluorescence ratio was 1.
For GGTCTAGAAG, the switch fluorescence ratio was 0.964.
ATCACACACC showed a switch fluorescence ratio of 1.44.
ATAAGACTCC showed a switch fluorescence ratio of 1.2.
For AAATGTCTTC, the switch fluorescence ratio was 0.942.
Sequence TTGAAGCTTG has a switch fluorescence ratio of 0.987.
With ATCATATAAT the switch fluorescence ratio was 0.991.
Sequence GTCAGGTATG has a switch fluorescence ratio of 0.948.
Work on CGGCTGGTTA yielded a switch fluorescence ratio of 1.01.
GAACGTTTAC gave a switch fluorescence ratio of 1.79.
TGTTGAGCTT was tested, and the switch fluorescence ratio was 1.01.
For TCTACCCTAT, the switch fluorescence ratio was 1.05.
TATAAGGTTA showed a switch fluorescence ratio of 0.967.
In the case of TTTTTATTT, the switch fluorescence ratio is reported as 0.996.
Work on CTAATGTGGA yielded a switch fluorescence ratio of 1.01.
With GTGATCCTAG the switch fluorescence ratio was 0.996.
In the case of TATACCGGTC, the switch fluorescence ratio is reported as 1.01.
GAAACAAGA showed a switch fluorescence ratio of 0.993.
For ATATCAATCA, the switch fluorescence ratio was 1.01.
ACAATCCGAA gave a switch fluorescence ratio of 1.01.
CCTGGTTCTT showed a switch fluorescence ratio of 1.03.
With ACCTGCTATA the switch fluorescence ratio was 1.23.
CACGTGTGAA was tested, and the switch fluorescence ratio was 1.03.
Work on ATGCCTAATT yielded a switch fluorescence ratio of 0.951.
TTGCCTGTGG gave a switch fluorescence ratio of 0.983.
Sequence TATGCTTAGA has a switch fluorescence ratio of 0.991.
ATAATTGTAG gave a switch fluorescence ratio of 0.947.
GGCGGGCACC showed a switch fluorescence ratio of 0.992.
In the case of ATTGTTTTCT, the switch fluorescence ratio is reported as 1.02.
For GTAGCGTGTC, the switch fluorescence ratio was 1.05.
TAGTGGTAAA was tested, and the switch fluorescence ratio was 0.98.
Work on GACCTAAGAA yielded a switch fluorescence ratio of 1.04.
With ATTGACGGAA the switch fluorescence ratio was 1.03.
In the case of GAGCCTGAGA, the switch fluorescence ratio is reported as 1.04.
TAGTTCGAGT showed a switch fluorescence ratio of 0.978.
GGTTTACACC gave a switch fluorescence ratio of 1.02.
CAGAAAGGGG gave a switch fluorescence ratio of 1.05.
Work on TCGTGGAGCG yielded a switch fluorescence ratio of 0.949.
AGGGTAGCT gave a switch fluorescence ratio of 0.987.
TGTACTGGG was tested, and the switch fluorescence ratio was 0.982.
In the case of GGGTGACGAA, the switch fluorescence ratio is reported as 0.986.
Sequence TCGGTCCCGT has a switch fluorescence ratio of 1.01.
TTGGGATCAA was tested, and the switch fluorescence ratio was 0.963.
ATCCGTGAAT showed a switch fluorescence ratio of 1.25.
Sequence TACAGCCCCC has a switch fluorescence ratio of 1.17.
Work on GATTAATGGA yielded a switch fluorescence ratio of 1.
TTGGGCGTTG gave a switch fluorescence ratio of 0.971.
Sequence ACTTAGAGG has a switch fluorescence ratio of 0.955.
Work on CAAGTGAGGA yielded a switch fluorescence ratio of 1.03.
With CAGGGGGCTG the switch fluorescence ratio was 0.969.
TAGAAACCT showed a switch fluorescence ratio of 2.66.
GAAATTGAGA gave a switch fluorescence ratio of 0.976.
With GACACTA the switch fluorescence ratio was 1.26.
For ATGGACTTC, the switch fluorescence ratio was 1.01.
